The list shows a part of the results. At the low end of the ranking the order means little. Measured with an extract: partners may take part in the binding.
What follows are sequences tested against T1, HNF4alpha8 (COS-7 nuclear extract) (UniProt P41235-5) (assay: protein-binding microarray). Settings: COS-7 nuclear extract on double-stranded Agilent 4x180k PBM; binding buffer, salt, pH and temperature not given; high values mean tight binding; double strand, one strand shown; sequences stand for … in …GCCTAGGGAGATTAGAGTATCGGTCGA.
T1 sequence: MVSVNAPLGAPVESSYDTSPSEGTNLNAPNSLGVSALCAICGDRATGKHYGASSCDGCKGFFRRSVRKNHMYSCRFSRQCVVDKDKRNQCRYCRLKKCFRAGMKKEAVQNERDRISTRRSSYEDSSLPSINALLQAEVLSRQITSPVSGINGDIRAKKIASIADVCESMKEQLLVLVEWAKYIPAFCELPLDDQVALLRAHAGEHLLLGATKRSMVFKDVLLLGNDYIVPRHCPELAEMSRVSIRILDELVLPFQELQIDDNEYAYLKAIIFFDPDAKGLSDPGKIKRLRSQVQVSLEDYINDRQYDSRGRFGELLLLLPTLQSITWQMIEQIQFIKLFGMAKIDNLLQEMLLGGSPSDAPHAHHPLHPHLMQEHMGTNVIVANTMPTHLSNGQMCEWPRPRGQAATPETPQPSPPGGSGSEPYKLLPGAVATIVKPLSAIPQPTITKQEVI
GATTAGATAACATCTGGACTTTACACAGAC showed a binding signal (log2 normalized intensity) of 4.72. GAAACATCTACCCTTGACAATTCCTATTCA gave a binding signal (log2 normalized intensity) of -1.34. TTCCCTATCCCGCTGCTTCCACCAGGGCTA was tested, and the binding signal (log2 normalized intensity) was -1.35. CTCAGAACTACCAATGTTTACCAGCTCTGT showed a binding signal (log2 normalized intensity) of -1.41. AACAAAGTCCAAATTCCTAACTATGGTTGA gave a binding signal (log2 normalized intensity) of 2.05. AACCTTTCCCTCTCTCCTGGTTTGGGGCCT gave a binding signal (log2 normalized intensity) of 1.37. ACTCACTATCAGGAAACTCTTTCCTAACAG was tested, and the binding signal (log2 normalized intensity) was -1.22. In the case of ATCATGAACTGAGTACTATCAGATCCACCA, the binding signal (log2 normalized intensity) is reported as -1.06. GTAATCCCATTTCCCTTGTTTACCTTGGTG showed a binding signal (log2 normalized intensity) of 1.58. Work on AGTTGGAAAATGTCGTTTTCCCGGTTTGTT yielded a binding signal (log2 normalized intensity) of 1.04. TCTGCAGCCCCTTTTGGAATCCCCATCTCA gave a binding signal (log2 normalized intensity) of 3.62. AAAGTCTACATTCTAGATGACCCCTCTCTA gave a binding signal (log2 normalized intensity) of 4.5. Work on AGTGAGCCTTGCCGTGCTGCGGTGGGCTCC yielded a binding signal (log2 normalized intensity) of -1.47. In the case of GGGTGGTGGTTACCGGCAGAGGCTGCAGAG, the binding signal (log2 normalized intensity) is reported as -0.956. For AGTGCACCTTAATAAGCACATTCCTTTCCC, the binding signal (log2 normalized intensity) was -0.98. In the case of CCCAGTATGAGCGGCGCTGACCCCGGGAGC, the binding signal (log2 normalized intensity) is reported as 3.67. For GCCTCATGGACTTTGAAGGAGATTCCTGTG, the binding signal (log2 normalized intensity) was 2.03. AGATGAGTTTCTTCACTGACGAAACTCACA gave a binding signal (log2 normalized intensity) of -0.96. GTCAATAGGGCAGGGGGGAGATGAAATCTG showed a binding signal (log2 normalized intensity) of -1.36. In the case of TATCTCCAGCAAACGTTCTTCTCTAACCCT, the binding signal (log2 normalized intensity) is reported as -0.322. With TGGATGGGGGCGTTCCCCGAGCGAGCTCCG the binding signal (log2 normalized intensity) was -1.34. AAGGTCAGGACCACACATTCCATTACTGCA gave a binding signal (log2 normalized intensity) of -1.28. In the case of TGCACTTTACGTAAGATAAGGTGAACATAC, the binding signal (log2 normalized intensity) is reported as 1.09. Work on CCTAAAACATCAAATACCTCCAAGAGGTTT yielded a binding signal (log2 normalized intensity) of -1.08. For AAAGGAGACTTTTAAGTGGGGTCAAAGGGT, the binding signal (log2 normalized intensity) was 5.97. With AACTCACAGTCTGGCAGTGAAGGTTCAGTG the binding signal (log2 normalized intensity) was 1.67. For GCCGGCCCGCAGGTCAGTCGACCCTCTCTG, the binding signal (log2 normalized intensity) was 2.12. Work on TAGGTCCCTGCTTCCAAGTCTCAGCACCTG yielded a binding signal (log2 normalized intensity) of -1.37. In the case of TGGACTCCTCTTATCTTCAGGTATCCTTAA, the binding signal (log2 normalized intensity) is reported as 0.683. In the case of GCAGTCAGGACTCTGGGACCGCAGGGGGCT, the binding signal (log2 normalized intensity) is reported as -1.4. Sequence GAGACACCTGGCCAAGTACAGCCTGTGCTA has a binding signal (log2 normalized intensity) of -1.32. ACAAAGGGGGAGGGAGATAGAGAAAGAAAA was tested, and the binding signal (log2 normalized intensity) was -1.38. With ATGACCTGGACAGGTCCAAGGTTCTCCAGG the binding signal (log2 normalized intensity) was 2.68. With AACAGAGTCTCCGAGGAACCCAGACTGCAT the binding signal (log2 normalized intensity) was -1.27. For ACCTTTGGGCTAAAAAGGAAGCTGTGTGTG, the binding signal (log2 normalized intensity) was 1.52. With TTTTCCTCTAACCACTTTGAAATAGTGACC the binding signal (log2 normalized intensity) was 2.64. In the case of GAAGCTTGAAGGAGTATATGGCTAAGCGAA, the binding signal (log2 normalized intensity) is reported as -1.22. AGGTTGCAGTGAGCTGTGATTGCGCCACTG was tested, and the binding signal (log2 normalized intensity) was -0.901. GGAACCCCACCCCCACGCCCCCCAGCGGAA gave a binding signal (log2 normalized intensity) of 7.38. Sequence GTCAAACTGATCAGAAGTGGTTACATCTAT has a binding signal (log2 normalized intensity) of 0.492. In the case of ATACCCAGAGTGATCTTTGAAACATAACAG, the binding signal (log2 normalized intensity) is reported as 2.16. In the case of TCAAACAGCTTCGCCTCCTCCAAGCATACC, the binding signal (log2 normalized intensity) is reported as -1.29. CGAGTCAAGGGTCAATCCTCTCTTTGGAAT was tested, and the binding signal (log2 normalized intensity) was 2.97. AGAACAAGGTAGCCACAGAATGACTCTTGT showed a binding signal (log2 normalized intensity) of -0.89. GTGGATGCTGGAATGAGGGAGGCAGCCACC was tested, and the binding signal (log2 normalized intensity) was -1.31. Work on TTTGTGTTTGTCCCTTTCTTCTTCTGCCAC yielded a binding signal (log2 normalized intensity) of 1.68. Work on TGGAGGCTGGAGCTCCTGGGCCAAAGGGCA yielded a binding signal (log2 normalized intensity) of 4.63. Work on GAAAGTCTGACCCTTGACCAAGCAGCTGTT yielded a binding signal (log2 normalized intensity) of 4.43. CTTCTGCCCCCGCAGACCCAGTCTTAGGGA showed a binding signal (log2 normalized intensity) of 4.12. In the case of CCCATCTTCCAGAAATGCCAAGATCAGGGC, the binding signal (log2 normalized intensity) is reported as -1.25. In the case of AGGTGGGGGCCGCCCATTGGGATCCATATC, the binding signal (log2 normalized intensity) is reported as -1.25. TCTAGGTCACCACCTTTTTTGGCCTTTACC gave a binding signal (log2 normalized intensity) of 1.95. TATCAAGGGTGAGGGATTTTCAGTATACTG was tested, and the binding signal (log2 normalized intensity) was -1.14. CTTCCCCACCCCCTCTCCTCCCTCGGCCGG showed a binding signal (log2 normalized intensity) of 5.78. ATGCTGCTCTCCCACTCCCCCTGCTGGACA gave a binding signal (log2 normalized intensity) of 3.93. CTGGAACCAACATGGCAGACAGCAGTCTGA gave a binding signal (log2 normalized intensity) of -1.28. For GAAGTAAAACAGGTAGAGAGCTGTCTGCTG, the binding signal (log2 normalized intensity) was -1.3. Work on CTTAAAAAAAAAGAACAGCTTTGGTATTAC yielded a binding signal (log2 normalized intensity) of 0.456. ATGGCCACCCTTCAGCAAATAGTGGGAGGT gave a binding signal (log2 normalized intensity) of -0.839. TTTTATTATATTGAATTCCTGGAAATCCCG showed a binding signal (log2 normalized intensity) of -0.0113. ATCTCTTGACTCTTCCCATCTAACTGCCCC was tested, and the binding signal (log2 normalized intensity) was 4.39. Work on GCTCTCAGAATAGCAAATCTGTTACGAGTG yielded a binding signal (log2 normalized intensity) of -0.823. With CGGCAGAGCACCTGGATAAGCCAGATAATT the binding signal (log2 normalized intensity) was -1.18. With AATGACATTTTGGACTACTTCATGTCCTGT the binding signal (log2 normalized intensity) was 1.22. AGTATAATAAAGTGGCAACCCTTGACCCCA showed a binding signal (log2 normalized intensity) of 6.42. For GCAAGACCAAACAAAATTAATGTGCCTGCC, the binding signal (log2 normalized intensity) was -1.34. With ACAAGGCAGACTTGGATTTTCTCATCCCAG the binding signal (log2 normalized intensity) was -0.845. For TTGTAGGGGGAGGGTAAATATAGTTAAAGC, the binding signal (log2 normalized intensity) was -1.29. Sequence CCTGGCTTGTTTGCAAAGCAACTCCTCTGT has a binding signal (log2 normalized intensity) of -0.585. For GTGAGCAGGTGTGTGGCATCTTGGGGTCAA, the binding signal (log2 normalized intensity) was 4.53. Work on TGAGGCCTGGCCGAGGTTGCCCAGCTATTA yielded a binding signal (log2 normalized intensity) of -1.14. For ACCGTAGCCTGACCATCACCACTTCAAGCT, the binding signal (log2 normalized intensity) was -1.28.
